# Whole data set: some 81,000 sequences, median “one-hybrid fitness for binding parS DNA” near -0.17, cut for the highest 2% near 0.51. The list shows a part of the results.
# B1: Caulobacter ParB omega fusion; a variant is named by its letters at X, in order, B8GW30 (parent)
# chain: MESVVVGEPGMSEGRRGLGRGLSALLGEVDAAPAQAPGEQLGGSREAPIEILQRNPDQPRRTFREEDLEDLSNSIREKGVLQPILVRPSPDTAGEYQIVAGERAWRAAQRAGLKTVPIMVRELDDLAVLEIGIIENVQRADLNVLEEALSYKVLMEKFERTQENIAQTIGKSXSHVANXMRLLXLPDEVQSYLVSGELTAXHARAIAAAADPVALAKQIIEGGLSVRETEALARKAPNLSAGKSKGGRPPRVKDTDTQALESDLSSVLGLDVSIDHRGSTGTLTITYATLEQLDDLCNRLTRGI
# Variants of: B1
# Assay: one-hybrid fitness for binding parS DNA (scaled: cognate 1, non-cognate 0); higher = stronger binding
# Conditions: with parS DNA site
# How it was run: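 Caulobacter ParB libraries with four specificity codons randomised were screened by bacterial one-hybrid selection in the E. coli USO strain, using a HIS3 reporter whose site lies 19 bp from the promoter. Selection ran for 48 hours at 37°C on M9 lacking histidine, with 0.1 mM IPTG and 5 mM 3-AT. Plasmids were Illumina-sequenced before and after selection, three replicate libraries were pooled, and variants with under 10 reads were dropped. Fitness is the log change in each variant's read ratio to wild type, rescaled against the cognate and non-cognate sites.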
row,Variant,one-hybrid fitness for binding parS DNA
1,RENV,≤ 0.2
2,RIKM,0.325
3,HNLL,≤ 0.2
4,PPPM,≤ 0.2
5,AIHC,≤ 0.2
6,VMSA,≤ 0.2
7,VTCS,≤ 0.2
8,TNQR,≤ 0.2
9,FYTR,≤ 0.2
10,PQVA,≤ 0.2
11,SMVP,≤ 0.2
12,LCAW,≤ 0.2
13,CNNV,≤ 0.2
14,LINF,≤ 0.2
15,TTYV,≤ 0.2
16,CPIS,≤ 0.2
17,VDMS,≤ 0.2
18,PHRW,≤ 0.2
19,SLKA,≤ 0.2
20,THIF,≤ 0.2
21,VYGL,≤ 0.2
22,TNPC,≤ 0.2
23,TYSA,≤ 0.2
24,CIQG,≤ 0.2
25,RWFR,≤ 0.2

row,Variant,one-hybrid fitness for binding parS DNA
1,GATN,≤ 0.2
2,MGFL,≤ 0.2
3,VNTR,≤ 0.2
4,LTHK,≤ 0.2
5,QKQG,≤ 0.2
6,PSRD,≤ 0.2
7,ALEG,≤ 0.2
8,HLQY,≤ 0.2
9,KYKK,≤ 0.2
10,SKFS,≤ 0.2
11,RYSV,≤ 0.2
12,RAVP,≤ 0.2
13,GLKS,≤ 0.2
14,PRMP,≤ 0.2
15,HTKA,≤ 0.2
16,CKST,≤ 0.2
17,TSTC,≤ 0.2
18,EMHY,≤ 0.2
19,AVKC,≤ 0.2
20,FIVE,≤ 0.2
21,PRTR,≤ 0.2
22,TVSC,≤ 0.2
23,RLYN,0.487
24,QATM,≤ 0.2
25,RNRA,0.534

row,Variant,one-hybrid fitness for binding parS DNA
1,KYAC,≤ 0.2
2,HMYT,0.26
3,FICL,≤ 0.2
4,MTPT,≤ 0.2
5,SALH,≤ 0.2
6,GYAG,≤ 0.2
7,DTKE,≤ 0.2
8,RTNF,0.403
9,AIRL,≤ 0.2
10,KFSL,≤ 0.2
11,ENRS,≤ 0.2
12,RGTV,≤ 0.2
13,QPGV,≤ 0.2
14,IEIW,≤ 0.2
15,AQLR,≤ 0.2
16,FFRV,≤ 0.2
17,QCMV,≤ 0.2
18,SKST,≤ 0.2
19,TWLS,≤ 0.2
20,AQPW,≤ 0.2
21,PKDC,≤ 0.2
22,PQQP,≤ 0.2
23,TRYC,≤ 0.2
24,QTNR,≤ 0.2
25,TMPM,≤ 0.2

row,Variant,one-hybrid fitness for binding parS DNA
1,ISKS,≤ 0.2
2,WADG,≤ 0.2
3,PSFV,≤ 0.2
4,VRKH,≤ 0.2
5,LCNM,≤ 0.2
6,CDHF,≤ 0.2
7,PCCC,≤ 0.2
8,LYVG,≤ 0.2
9,GHND,≤ 0.2
10,HEER,≤ 0.2
11,MQLP,≤ 0.2
12,WNHC,≤ 0.2
13,HDRT,≤ 0.2
14,TGHS,≤ 0.2
15,HNRP,≤ 0.2
16,FKPT,≤ 0.2
17,YHLT,≤ 0.2
18,TITR,≤ 0.2
19,TGHF,≤ 0.2
20,QCNC,≤ 0.2
21,LRNS,≤ 0.2
22,CVLG,≤ 0.2
23,DNYM,≤ 0.2
24,SWQI,≤ 0.2
25,RPLY,≤ 0.2

row,Variant,one-hybrid fitness for binding parS DNA
1,YHCN,≤ 0.2
2,LRVR,≤ 0.2
3,VHLK,≤ 0.2
4,VNEL,≤ 0.2
5,PFAY,≤ 0.2
6,NNTL,≤ 0.2
7,YTDS,≤ 0.2
8,EKSL,≤ 0.2
9,AKYT,≤ 0.2
10,IVQY,≤ 0.2
11,ENKS,≤ 0.2
12,RTIS,1.01
13,GRIT,≤ 0.2
14,ENLS,≤ 0.2
15,LSHM,≤ 0.2
16,DNDG,≤ 0.2
17,AQPS,≤ 0.2
18,TSMR,≤ 0.2
19,PMAW,≤ 0.2
20,FDNR,≤ 0.2
21,WLHS,≤ 0.2
22,LVWT,≤ 0.2
23,FTLT,≤ 0.2
24,TLSF,≤ 0.2
25,CVAG,≤ 0.2

row,Variant,one-hybrid fitness for binding parS DNA
1,VLVR,≤ 0.2
2,HAWG,≤ 0.2
3,ESVP,≤ 0.2
4,DTHV,≤ 0.2
5,APCC,≤ 0.2
6,LMIQ,≤ 0.2
7,RCEC,0.866
8,QDTT,≤ 0.2
9,LKWV,≤ 0.2
10,ERGA,≤ 0.2
11,LSDV,≤ 0.2
12,RYVF,≤ 0.2
13,NIFS,≤ 0.2
14,RYMC,0.994
15,LMQG,≤ 0.2
16,MTAY,≤ 0.2
17,QHSF,≤ 0.2
18,RMDN,0.375
19,CFLC,≤ 0.2
20,RHIY,0.207
21,IVFT,≤ 0.2
22,DPIG,≤ 0.2
23,AIVP,≤ 0.2
24,NCEM,≤ 0.2
25,RMWR,≤ 0.2

row,Variant,one-hybrid fitness for binding parS DNA
1,WQPK,≤ 0.2
2,APWK,≤ 0.2
3,PSGE,≤ 0.2
4,CNLT,≤ 0.2
5,QLRS,≤ 0.2
6,ILAK,≤ 0.2
7,NFPF,≤ 0.2
8,LEAN,≤ 0.2
9,LVPS,≤ 0.2
10,RMRV,≤ 0.2
11,ALPG,≤ 0.2
12,VALV,≤ 0.2
13,HAYL,≤ 0.2
14,KKVG,≤ 0.2
15,TWRH,≤ 0.2
16,VDES,≤ 0.2
17,YRFT,≤ 0.2
18,RGEG,0.474
19,ITKA,≤ 0.2
20,AINR,≤ 0.2
21,ASYL,≤ 0.2
22,LLDN,≤ 0.2
23,QSHK,≤ 0.2
24,MPMY,≤ 0.2
25,CNLY,≤ 0.2

row,Variant,one-hybrid fitness for binding parS DNA
1,QMVP,≤ 0.2
2,TQNE,≤ 0.2
3,WNLP,≤ 0.2
4,PHTF,≤ 0.2
5,LVLC,≤ 0.2
6,RLTR,≤ 0.2
7,APHS,≤ 0.2
8,TQNK,≤ 0.2
9,TFKG,≤ 0.2
10,RCDR,≤ 0.2
11,RAFL,≤ 0.2
12,FPLI,≤ 0.2
13,WLCR,≤ 0.2
14,HLSI,≤ 0.2
15,ATNK,≤ 0.2
16,SVDI,≤ 0.2
17,AKTF,≤ 0.2
18,PVYI,≤ 0.2
19,SCES,≤ 0.2
20,MILS,0.26

# Source: a collection of fitness landscapes (doi:10.1016/j.celrep.2020.107928)
